Measured values published in patent publication US9988430B2, “Stable GLP-1 based GLP-1/glucagon receptor co-agonists” (Novo Nordisk A/S, priority 2014, dated 2018).
For at least one compound, name, drawing or mass did not settle the structure. *1 amine or outer side, *2 acyl side, *3 side chain or, on linkers, in order; H or OH if unused. Where a SMILES comes first, the peptide text is derived from it. Bridges are numbered along the chain shown (N, C = ends). Roman numbers before positions name the chains, in order. Side-chain parts run from the residue outwards. [ ]: non-standard residue; d: D form. The star is where a group is joined. C18 diacid = O=C(O)CCCCCCCCCCCCCCCCC(=O)*; γGlu = O=C(O)[C@H](CCC(=O)[*:2])N[*:1]; Desaminohistidyl = O=C(CCc1c[nH]cn1)*; Ac4c = NC1(C(=O)O)CCC1; AEEA = NCCOCCOCC(=O)O; Aib = CC(C)(N)C(=O)O

assay: Assay (III): ThT fibrillation assay for physical stability; type: physicochemical; details: pH 7.5, 10 mM HEPES buffer, 37° C., shaking 960 rpm

ThT assay pH 7.5: Lag time, 45.0 h:
CC[C@H](C)[C@H](NC(=O)[C@H](Cc1ccccc1)NC(=O)[C@H](CCC(=O)O)NC(=O)[C@H](CCCNC(=N)N)NC(=O)[C@H](C)NC(=O)[C@H](C)NC(=O)[C@H](CCCNC(=N)N)NC(=O)[C@H](C)NC(=O)[C@H](CCC(=O)O)NC(=O)[C@H](CC(C)C)NC(=O)[C@H](Cc1ccc(O)cc1)NC(=O)[C@H](CCCCN)NC(=O)[C@H](CO)NC(=O)[C@@H](NC(=O)[C@H](CC(=O)O)NC(=O)[C@H](CO)NC(=O)[C@@H](NC(=O)[C@H](Cc1ccccc1)NC(=O)[C@@H](NC(=O)CNC(=O)[C@H](Cc1c[nH]cn1)NC(=O)C(C)(C)NC(=O)CCc1c[nH]cn1)[C@@H](C)O)[C@@H](C)O)C(C)C)C(=O)N[C@@H](C)C(=O)N[C@@H](Cc1c[nH]c2ccccc12)C(=O)N[C@@H](CC(C)C)C(=O)N[C@@H](CC(C)C)C(=O)N[C@@H](CCCCNC(=O)CC[C@H](NC(=O)COCCOCCNC(=O)COCCOCCNC(=O)CC[C@H](NC(=O)CC[C@H](NC(=O)CCCCCCCCCCCCCCCCC(=O)O)C(=O)O)C(=O)O)C(=O)O)C(=O)NCC(=O)NCC(=O)NCC(=O)O [Example 31, N^ε34-[(4S)-4-carboxy-4-[[2-[2-[2-[[2-[2-[2-[[(4S)-4-carboxy-4-[[(4S)-4-carboxy-4-(17-carboxyheptadecanoylamino)butanoyl]amino]butanoyl]amino]ethoxy]ethoxy]acetyl]amino]ethoxy]ethoxy]acetyl]amino]butanoyl]-[Imp7,Aib8,His9,Lys18,Ala22,Arg23,Arg26,Leu33,Gly36]-GLP-1-(7-37)-peptide] (Desaminohistidyl-[Aib]HGTFTSDVSKYLEARAAREFIAWLLK([γGlu-AEEA-AEEA-γGlu-γGlu-C18 diacid])GGG-OH)
CC[C@H](C)[C@H](NC(=O)[C@H](Cc1ccccc1)NC(=O)[C@H](CCC(=O)O)NC(=O)[C@H](CCCNC(=N)N)NC(=O)[C@H](C)NC(=O)[C@H](C)NC(=O)[C@H](CCC(N)=O)NC(=O)CNC(=O)[C@H](CCC(=O)O)NC(=O)[C@H](CC(C)C)NC(=O)[C@H](Cc1ccc(O)cc1)NC(=O)[C@H](CCCNC(=N)N)NC(=O)[C@H](CO)NC(=O)[C@@H](NC(=O)[C@H](CC(=O)O)NC(=O)[C@H](CO)NC(=O)[C@@H](NC(=O)[C@H](Cc1ccccc1)NC(=O)[C@@H](NC(=O)CNC(=O)[C@H](Cc1c[nH]cn1)NC(=O)C(C)(C)NC(=O)CCc1c[nH]cn1)[C@@H](C)O)[C@@H](C)O)C(C)C)C(=O)N[C@@H](C)C(=O)N[C@@H](Cc1c[nH]c2ccccc12)C(=O)N[C@@H](CC(C)C)C(=O)N[C@@H](CC(C)C)C(=O)N[C@@H](CCCCNC(=O)CNC(=O)[C@H](CO)NC(=O)[C@H](CCC(=O)O)NC(=O)CNC(=O)[C@H](CO)NC(=O)CC[C@H](NC(=O)CC[C@H](NC(=O)CCCCCCCCCCCCCCCCC(=O)O)C(=O)O)C(=O)O)C(=O)N[C@H](C(N)=O)[C@@H](C)O [Example 8, N^ε34-[2-[[(2S)-2-[[(2S)-4-carboxy-2-[[2-[[(2S)-2-[[(4S)-4-carboxy-4-[[(4S)-4-carboxy-4-(17-carboxyheptadecanoylamino)butanoyl]amino]butanoyl]amino]-3-hydroxypropanoyl]amino]acetyl]amino]butanoyl]amino]-3-hydroxypropanoyl]amino]acetyl]-[Imp7,Aib8,His9,Arg18,Arg26,Leu33,Thr35]-GLP-1-(7-35)-peptide amide] (I: Desaminohistidyl-[Aib]HGTFTSDVSRYLEGQAAREFIAWLLKT-NH2 / II: {C18 diacid-γGlu-γGlu}-SGESG; amide I:27-II:C)
CC[C@H](C)[C@H](NC(=O)[C@H](Cc1ccccc1)NC(=O)[C@H](CCC(=O)O)NC(=O)[C@H](CCCNC(=N)N)NC(=O)[C@H](C)NC(=O)[C@H](C)NC(=O)[C@H](CCC(N)=O)NC(=O)[C@H](CCC(=O)O)NC(=O)[C@H](CCC(=O)O)NC(=O)[C@H](CC(C)C)NC(=O)[C@H](Cc1ccc(O)cc1)NC(=O)[C@H](CCCCN)NC(=O)[C@H](CO)NC(=O)[C@@H](NC(=O)[C@H](CC(=O)O)NC(=O)[C@H](CO)NC(=O)[C@@H](NC(=O)[C@H](Cc1ccccc1)NC(=O)[C@@H](NC(=O)CNC(=O)[C@H](Cc1c[nH]cn1)NC(=O)C(C)(C)NC(=O)CCc1c[nH]cn1)[C@@H](C)O)[C@@H](C)O)C(C)C)C(=O)N[C@@H](C)C(=O)N[C@@H](Cc1c[nH]c2ccccc12)C(=O)N[C@@H](CC(C)C)C(=O)N[C@@H](CC(C)C)C(=O)N[C@@H](CCCCNC(=O)CC[C@H](NC(=O)CC[C@H](NC(=O)[C@H](CO)NC(=O)CNC(=O)[C@H](CCC(=O)O)NC(=O)[C@H](CO)NC(=O)CNC(=O)CCCCCCCCCCCCCCCCC(=O)O)C(=O)O)C(=O)O)C(=O)N[C@H](C(=O)O)[C@@H](C)O [Example 27, N^ε34-[(4S)-4-carboxy-4-[[(4S)-4-carboxy-4-[[(2S)-2-[[2-[[(2S)-4-carboxy-2-[[(2S)-2-[[2-(17-carboxyheptadecanoylamino)acetyl]amino]-3-hydroxypropanoyl]amino]butanoyl]amino]acetyl]amino]-3-hydroxypropanoyl]amino]butanoyl]amino]butanoyl]-[Imp7,Aib8,His9,Lys18,Glu22,Arg26,Leu33,Thr35]-GLP-1-(7-35)-peptide] (I: Desaminohistidyl-[Aib]HGTFTSDVSKYLEEQAAREFIAWLLKT-OH / II: {C18 diacid}-GSEGS[γGlu][γGlu]; amide I:27-II:C)
CC[C@H](C)[C@H](NC(=O)[C@H](Cc1ccccc1)NC(=O)[C@H](CCC(=O)O)NC(=O)[C@H](CCCNC(=N)N)NC(=O)[C@H](C)NC(=O)[C@H](C)NC(=O)[C@H](CCC(N)=O)NC(=O)[C@H](CCC(=O)O)NC(=O)[C@H](CCC(=O)O)NC(=O)[C@H](CC(C)C)NC(=O)[C@H](Cc1ccc(O)cc1)NC(=O)[C@H](CCCCN)NC(=O)[C@H](CO)NC(=O)[C@@H](NC(=O)[C@H](CC(=O)O)NC(=O)[C@H](CO)NC(=O)[C@@H](NC(=O)[C@H](Cc1ccccc1)NC(=O)[C@@H](NC(=O)CNC(=O)[C@H](Cc1c[nH]cn1)NC(=O)C(C)(C)NC(=O)CCc1c[nH]cn1)[C@@H](C)O)[C@@H](C)O)C(C)C)C(=O)N[C@@H](C)C(=O)N[C@@H](Cc1c[nH]c2ccccc12)C(=O)N[C@@H](CC(C)C)C(=O)N[C@@H](CC(C)C)C(=O)N[C@@H](CCCCNC(=O)CNC(=O)[C@H](CO)NC(=O)[C@H](CCC(=O)O)NC(=O)CNC(=O)[C@H](CO)NC(=O)CC[C@H](NC(=O)CC[C@H](NC(=O)CCCCCCCCCCCCCCCCC(=O)O)C(=O)O)C(=O)O)C(=O)N[C@H](C(N)=O)[C@@H](C)O [Example 3, N^ε34-[2-[[(2S)-2-[[(2S)-4-carboxy-2-[[2-[[(2S)-2-[[(4S)-4-carboxy-4-[[(4S)-4-carboxy-4-(17-carboxyheptadecanoylamino)butanoyl]amino]butanoyl]amino]-3-hydroxypropanoyl]amino]acetyl]amino]butanoyl]amino]-3-hydroxypropanoyl]amino]acetyl]-[Imp7,Aib8,His9,Lys18,Glu22,Arg26,Leu33,Thr35]-GLP-1-(7-35)-peptide amide] (I: Desaminohistidyl-[Aib]HGTFTSDVSKYLEEQAAREFIAWLLKT-NH2 / II: {C18 diacid-γGlu-γGlu}-SGESG; amide I:27-II:C)
CC[C@H](C)[C@H](NC(=O)[C@H](Cc1ccccc1)NC(=O)[C@H](CCC(=O)O)NC(=O)[C@H](CCCNC(=N)N)NC(=O)[C@H](C)NC(=O)[C@H](C)NC(=O)[C@H](CCC(N)=O)NC(=O)[C@H](CCC(=O)O)NC(=O)[C@H](CCC(=O)O)NC(=O)[C@H](CC(C)C)NC(=O)[C@H](Cc1ccc(O)cc1)NC(=O)[C@H](CCCCN)NC(=O)[C@H](CO)NC(=O)[C@H](Cc1ccc(O)cc1)NC(=O)[C@H](CC(=O)O)NC(=O)[C@H](CO)NC(=O)[C@@H](NC(=O)[C@H](Cc1ccccc1)NC(=O)[C@@H](NC(=O)CNC(=O)[C@H](Cc1c[nH]cn1)NC(=O)C1(NC(=O)CCc2c[nH]cn2)CCC1)[C@@H](C)O)[C@@H](C)O)C(=O)N[C@@H](C)C(=O)N[C@@H](Cc1c[nH]c2ccccc12)C(=O)N[C@@H](CC(C)C)C(=O)N[C@@H](CC(C)C)C(=O)N[C@@H](CCCCN)C(=O)N[C@@H](CCCCNC(=O)CNC(=O)[C@H](CO)NC(=O)[C@H](CCC(=O)O)NC(=O)CNC(=O)[C@H](CO)NC(=O)CC[C@H](NC(=O)CC[C@H](NC(=O)CCCCCCCCCCCCCCCCC(=O)O)C(=O)O)C(=O)O)C(N)=O [Example 1, N^ε35-[2-[[(2S)-2-[[(2S)-4-carboxy-2-[[2-[[(2S)-2-[[(4S)-4-carboxy-4-[[(4S)-4-carboxy-4-(17-carboxyheptadecanoylamino)butanoyl]amino]butanoyl]amino]-3-hydroxypropanoyl]amino]acetyl]amino]butanoyl]amino]-3-hydroxypropanoyl]amino]acetyl]-[Imp7,Acb8,His9,Tyr16,Lys18,Glu22,Arg26,Leu33,Lys35]-GLP-1-(7-35)-peptide amide] (I: Desaminohistidyl-[Ac4c]HGTFTSDYSKYLEEQAAREFIAWLLKK-NH2 / II: {C18 diacid-γGlu-γGlu}-SGESG; amide I:28-II:C)
CC[C@H](C)[C@H](NC(=O)[C@H](Cc1ccccc1)NC(=O)[C@H](CCC(=O)O)NC(=O)[C@H](CCCNC(=N)N)NC(=O)[C@H](C)NC(=O)[C@H](C)NC(=O)[C@H](CCCNC(=N)N)NC(=O)CNC(=O)[C@H](CCC(=O)O)NC(=O)[C@H](CC(C)C)NC(=O)[C@H](Cc1ccc(O)cc1)NC(=O)[C@H](CCCCN)NC(=O)[C@H](CO)NC(=O)[C@@H](NC(=O)[C@H](CC(=O)O)NC(=O)[C@H](CO)NC(=O)[C@@H](NC(=O)[C@H](Cc1ccccc1)NC(=O)[C@@H](NC(=O)CNC(=O)[C@H](Cc1c[nH]cn1)NC(=O)[C@H](C)NC(=O)CCc1c[nH]cn1)[C@@H](C)O)[C@@H](C)O)C(C)C)C(=O)N[C@@H](C)C(=O)N[C@@H](Cc1c[nH]c2ccccc12)C(=O)N[C@@H](CC(C)C)C(=O)N[C@@H](CC(C)C)C(=O)N[C@@H](CCCCNC(=O)COCCOCCNC(=O)COCCOCCNC(=O)CC[C@H](NC(=O)CC[C@H](NC(=O)CC[C@H](NC(=O)CCCCCCCCCCCCCCCCC(=O)O)C(=O)O)C(=O)O)C(=O)O)C(=O)NCC(=O)NCC(=O)NCC(=O)O [Example 11, N^ε34-[2-[2-[2-[[2-[2-[2-[[(4S)-4-carboxy-4-[[(4S)-4-carboxy-4-[[(4S)-4-carboxy-4-(17-carboxyheptadecanoylamino)butanoyl]amino]butanoyl]amino]butanoyl]amino]ethoxy]ethoxy]acetyl]amino]ethoxy]ethoxy]acetyl]-[Imp7,His9,Lys18,Arg23,Arg26,Leu33,Gly36]-GLP-1-(7-37)-peptide] (Desaminohistidyl-AHGTFTSDVSKYLEGRAAREFIAWLLK([AEEA-AEEA-γGlu-γGlu-γGlu-C18 diacid])GGG-OH)
